The other results are listed elsewhere or left out. The list includes weakly bound sequences.

This assay has as its target T1, MBP-FoxP3dN (UniProt Q99JB6).
T1 sequence: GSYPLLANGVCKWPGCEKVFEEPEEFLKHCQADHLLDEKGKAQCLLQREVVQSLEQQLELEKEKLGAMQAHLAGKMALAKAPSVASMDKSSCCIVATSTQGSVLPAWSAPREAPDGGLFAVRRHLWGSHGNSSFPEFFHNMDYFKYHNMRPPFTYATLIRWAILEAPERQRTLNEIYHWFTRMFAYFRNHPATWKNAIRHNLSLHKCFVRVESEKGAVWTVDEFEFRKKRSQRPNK
Put plainly: PD-seq (MBP pull-down with sequencing). To be noted: 20 mM Tris-HCl pH 7.5, 100 mM NaCl, 1.5 mM MgCl2, 0.4 uM protein, 0.1 uM dsDNA library, 30 min, room temperature, amylose pull-down; high values mean tight binding; double strand, one strand shown.
On to “GATGATTGTTCTCCCAGCTGATGAATTTCTAGCTTCGAGTAAACAAATTTTCCTAATCTTTCTGTTCAAGCGCCATCTAC”, for which the binding signal (RPM ratio (pull-down/input)) came to 0.276. To “GATGATTGTTCTCCCAGCTGATGAATTCGGAGGATCGAGTAAACAAATTTTCCTAATCTTTCTGTTCAAGCGCCATCTAC” belongs 0.239; to “GATGATTGTTCTCCCAGCTGATGAATTACGAATCTCGAGTAAACAAATTTTCCTAATCTTTCTGTTCAAGCGCCATCTAC”, 1.57; to “GATGATTGTTCTCCCAGCTGATGAATTAATAAACTCGAGTAAACAAATTTTCCTAATCTTTCTGTTCAAGCGCCATCTAC”, 0.532.

On to “GATGATTGTTCTCCCAGCTGATGAATTCAGCTACTCGAGTAAACAAATTTTCCTAATCTTTCTGTTCAAGCGCCATCTAC”, for which the binding signal (RPM ratio (pull-down/input)) came to 1.32. The value for “GATGATTGTTCTCCCAGCTGATGAATTGGTACGTTCGAGTAAACAAATTTTCCTAATCTTTCTGTTCAAGCGCCATCTAC” was 0.546. To “GATGATTGTTCTCCCAGCTGATGAATTCTGGAGTTCGAGTAAACAAATTTTCCTAATCTTTCTGTTCAAGCGCCATCTAC” belongs 0.378. The value for “GATGATTGTTCTCCCAGCTGATGAATTTCAAATATCGAGTAAACAAATTTTCCTAATCTTTCTGTTCAAGCGCCATCTAC” was 0.296; that for “GATGATTGTTCTCCCAGCTGATGAATTGGCCTCCTCGAGTAAACAAATTTTCCTAATCTTTCTGTTCAAGCGCCATCTAC” was 1.27; that for “GATGATTGTTCTCCCAGCTGATGAATTCTCGTGCTCGAGTAAACAAATTTTCCTAATCTTTCTGTTCAAGCGCCATCTAC” was 0.324. Consider “GATGATTGTTCTCCCAGCTGATGAATTGTTCAGCTCGAGTAAACAAATTTTCCTAATCTTTCTGTTCAAGCGCCATCTAC”, for which the binding signal (RPM ratio (pull-down/input)) was 0.309. The value for “GATGATTGTTCTCCCAGCTGATGAATTATGGAAATCGAGTAAACAAATTTTCCTAATCTTTCTGTTCAAGCGCCATCTAC” was 0.4. The value for “GATGATTGTTCTCCCAGCTGATGAATTCATAAACTCGAGTAAACAAATTTTCCTAATCTTTCTGTTCAAGCGCCATCTAC” was 0.419. Take “GATGATTGTTCTCCCAGCTGATGAATTGACATGATCGAGTAAACAAATTTTCCTAATCTTTCTGTTCAAGCGCCATCTAC”: the binding signal (RPM ratio (pull-down/input)) was 0.467. The value for “GATGATTGTTCTCCCAGCTGATGAATTGGGTCATTCGAGTAAACAAATTTTCCTAATCTTTCTGTTCAAGCGCCATCTAC” was 0.64. The value for “GATGATTGTTCTCCCAGCTGATGAATTGTCATCATCGAGTAAACAAATTTTCCTAATCTTTCTGTTCAAGCGCCATCTAC” was 1.23; that for “GATGATTGTTCTCCCAGCTGATGAATTCACGGCTTCGAGTAAACAAATTTTCCTAATCTTTCTGTTCAAGCGCCATCTAC” was 0.28; that for “GATGATTGTTCTCCCAGCTGATGAATTGTTACAGTCGAGTAAACAAATTTTCCTAATCTTTCTGTTCAAGCGCCATCTAC” was 0.91. The value for “GATGATTGTTCTCCCAGCTGATGAATTTTAATATTCGAGTAAACAAATTTTCCTAATCTTTCTGTTCAAGCGCCATCTAC” was 1.97; that for “GATGATTGTTCTCCCAGCTGATGAATTAAGGTCTTCGAGTAAACAAATTTTCCTAATCTTTCTGTTCAAGCGCCATCTAC” was 0.429. With “GATGATTGTTCTCCCAGCTGATGAATTTCGACTATCGAGTAAACAAATTTTCCTAATCTTTCTGTTCAAGCGCCATCTAC”, the binding signal (RPM ratio (pull-down/input)) came out at 0.692. Take “GATGATTGTTCTCCCAGCTGATGAATTGTTATGCTCGAGTAAACAAATTTTCCTAATCTTTCTGTTCAAGCGCCATCTAC”: the binding signal (RPM ratio (pull-down/input)) is 3.15. The value for “GATGATTGTTCTCCCAGCTGATGAATTATCTGACTCGAGTAAACAAATTTTCCTAATCTTTCTGTTCAAGCGCCATCTAC” was 0.23; that for “GATGATTGTTCTCCCAGCTGATGAATTAAAGTCATCGAGTAAACAAATTTTCCTAATCTTTCTGTTCAAGCGCCATCTAC” was 0.486; that for “GATGATTGTTCTCCCAGCTGATGAATTGTATGTCTCGAGTAAACAAATTTTCCTAATCTTTCTGTTCAAGCGCCATCTAC” was 2.89. The value for “GATGATTGTTCTCCCAGCTGATGAATTGGTCCGATCGAGTAAACAAATTTTCCTAATCTTTCTGTTCAAGCGCCATCTAC” was 0.231.

As to “GATGATTGTTCTCCCAGCTGATGAATTGCGTACGTCGAGTAAACAAATTTTCCTAATCTTTCTGTTCAAGCGCCATCTAC”, the binding signal (RPM ratio (pull-down/input)) turned out to be 1.07.

For “GATGATTGTTCTCCCAGCTGATGAATTAGCAGTATCGAGTAAACAAATTTTCCTAATCTTTCTGTTCAAGCGCCATCTAC”, the binding signal (RPM ratio (pull-down/input)) was found to be 0.734.

As for “GATGATTGTTCTCCCAGCTGATGAATTCATACGATCGAGTAAACAAATTTTCCTAATCTTTCTGTTCAAGCGCCATCTAC”, the binding signal (RPM ratio (pull-down/input)) was 0.338.

Regarding “GATGATTGTTCTCCCAGCTGATGAATTGAAGCTATCGAGTAAACAAATTTTCCTAATCTTTCTGTTCAAGCGCCATCTAC”, the binding signal (RPM ratio (pull-down/input)) came out at 0.54. The value for “GATGATTGTTCTCCCAGCTGATGAATTGTCCAGATCGAGTAAACAAATTTTCCTAATCTTTCTGTTCAAGCGCCATCTAC” was 0.184.

The values are drawn from publication PMC12820563.
